Results published in PubChem BioAssay (EPA / NIEHS).
For some assays here: The hits were mostly taken out for another list; the other results follow. Records with an inconclusive call do not appear. The list shows a part of the results, in another mix than the full data. A structure can be active in one record and inactive in another. Calls of active or inactive are those of the source. How the source made its calls, unless noted: active means hit-call score of the fitted dose curve at least 0.9, where 1 is the maximum; inactive means score below 0.9.

What was measured:
[1] = read-out: Low-density lipoprotein receptor (LDLR), LDLR (gene 3949); assay: BSK_CASM3C_LDLR: BioMAP Diversity Plus: CASM3C Assay for Low-density lipoprotein receptor (LDLR) Biomarker Activity (AID 2283045); settings: actives raise or lower the signal; primary human coronary artery smooth muscle cells;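 further: LDLR protein level on the cell surface quantified by ELISA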
[2] = read-out: E-selectin (Homo sapiens) (UniProt P16581); assay: BSK_LPS_Eselectin: BioMAP Diversity Plus: LPS Assay for Eselectin Biomarker Activity (AID 2283077); settings: actives raise or lower the signal; primary human HUVEC with PBMC
Chain of UniProt P16581 (P16581 whole entry, looked up): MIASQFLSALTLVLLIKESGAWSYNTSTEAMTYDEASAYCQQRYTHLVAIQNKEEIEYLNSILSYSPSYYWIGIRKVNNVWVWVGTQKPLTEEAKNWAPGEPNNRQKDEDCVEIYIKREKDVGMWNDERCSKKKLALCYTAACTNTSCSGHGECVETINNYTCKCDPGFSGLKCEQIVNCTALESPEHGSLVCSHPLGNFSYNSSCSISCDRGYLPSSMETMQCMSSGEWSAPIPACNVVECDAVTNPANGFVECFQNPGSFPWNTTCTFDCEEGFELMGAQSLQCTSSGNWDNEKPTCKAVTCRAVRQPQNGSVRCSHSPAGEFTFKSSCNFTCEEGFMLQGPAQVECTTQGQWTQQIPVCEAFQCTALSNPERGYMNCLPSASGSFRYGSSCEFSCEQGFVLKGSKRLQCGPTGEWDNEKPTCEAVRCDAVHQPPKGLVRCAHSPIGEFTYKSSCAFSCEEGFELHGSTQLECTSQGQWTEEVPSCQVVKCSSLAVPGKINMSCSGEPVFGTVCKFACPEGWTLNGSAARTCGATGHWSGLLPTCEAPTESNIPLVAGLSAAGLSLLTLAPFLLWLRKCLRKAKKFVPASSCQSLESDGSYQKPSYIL
Method in brief: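 E-selectin ELISA on LPS-stimulated endothelial cell/PBMC co-cultures, read 24 h post-treatment; gains and losses fitted against DMSO. Parallel SRB staining (0.1% SRB after 10% TCA fixation, 560 nm) flags overt cytotoxicity.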

[3] = read-out: CD40, CD40 (gene 958); assay: BSK_SAg_CD40: BioMAP Diversity Plus: SAg Assay for CD40 Biomarker Activity (AID 2283088); settings: actives raise or lower the signal; primary human HUVEC with PBMC
Method in brief: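 CD40 is measured by fluorescence ELISA in an endothelial/PBMC primary human co-culture at 24 h post-dose. Fitting is bidirectional, DMSO baseline. Parallel SRB staining (560 nm) flags cytotoxicity.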

[4] = read-out: Monokine induced gamma interferon (MIG), CXCL9 (gene 4283); assay: BSK_SAg_MIG: BioMAP Diversity Plus: SAg Assay for Monokine induced gamma interferon (MIG) Biomarker Activity (AID 2283092); settings: actives raise or lower the signal; primary human HUVEC with PBMC
Method in brief: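 HUVEC plus human PBMC co-culture, chemicals dosed and MIG (CXCL9) quantified by ELISA at 24 h. Bidirectional curve fitting against DMSO as negative control and baseline, so both gain and loss of signal count as activity.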

[5] = BSK_SAg_SRB: Viability Assessment in the BioMAP Diversity Plus: SAg Assay (AID 2283096); settings: primary human HUVEC with PBMC;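 further: cells read one day after compound addition; hits may be either gain or loss of signal compared with DMSO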
Method in brief: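 SRB absorbance at 560 nm served as the viability read-out. Cells (HUVEC plus peripheral blood mononuclear cells) were TCA-fixed and stained 24 h post-dosing; activity fitted in both directions against DMSO controls.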

[6] = molecular target: chimpanzee Androgen Receptor (AR), AR (gene 747460) (UniProt O97775); assay: NVS_NR_cAR: NovaScreen (NVS) Nuclear Receptor Binding Assay for chimpanzee Androgen Receptor (AR) (AID 2283346; active means hit-call score of the fitted dose curve at least 0.9, where 1 is the maximum;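 further: radioligand displacement from AR measured by scintillation counting in a cell-free assay; a loss of bound radioligand signal versus DMSO counts as binding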)
Method in brief: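 Cell-free competition binding with insect-cell (Sf9/Sf21) extracted chimpanzee AR; scintillation signal from lysate at 72 h. Screened in duplicate at 25 uM, then concentration-response for actives; fitting relative to DMSO.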

[7] = molecular target: PGR (gene 5241) (UniProt P06401); assay: TOX21_PR_BLA_Followup_Antagonist_ratio: Tox21 HEK293 Progesterone Receptor (PR) Antagonism Beta-lactamase Follow-Up Assay, Ratio (AID 2283934; active means hit-call score of the fitted dose curve at least 0.9, where 1 is the maximum)
Chain of UniProt P06401 (P06401 whole entry, looked up, the tested form may be a part): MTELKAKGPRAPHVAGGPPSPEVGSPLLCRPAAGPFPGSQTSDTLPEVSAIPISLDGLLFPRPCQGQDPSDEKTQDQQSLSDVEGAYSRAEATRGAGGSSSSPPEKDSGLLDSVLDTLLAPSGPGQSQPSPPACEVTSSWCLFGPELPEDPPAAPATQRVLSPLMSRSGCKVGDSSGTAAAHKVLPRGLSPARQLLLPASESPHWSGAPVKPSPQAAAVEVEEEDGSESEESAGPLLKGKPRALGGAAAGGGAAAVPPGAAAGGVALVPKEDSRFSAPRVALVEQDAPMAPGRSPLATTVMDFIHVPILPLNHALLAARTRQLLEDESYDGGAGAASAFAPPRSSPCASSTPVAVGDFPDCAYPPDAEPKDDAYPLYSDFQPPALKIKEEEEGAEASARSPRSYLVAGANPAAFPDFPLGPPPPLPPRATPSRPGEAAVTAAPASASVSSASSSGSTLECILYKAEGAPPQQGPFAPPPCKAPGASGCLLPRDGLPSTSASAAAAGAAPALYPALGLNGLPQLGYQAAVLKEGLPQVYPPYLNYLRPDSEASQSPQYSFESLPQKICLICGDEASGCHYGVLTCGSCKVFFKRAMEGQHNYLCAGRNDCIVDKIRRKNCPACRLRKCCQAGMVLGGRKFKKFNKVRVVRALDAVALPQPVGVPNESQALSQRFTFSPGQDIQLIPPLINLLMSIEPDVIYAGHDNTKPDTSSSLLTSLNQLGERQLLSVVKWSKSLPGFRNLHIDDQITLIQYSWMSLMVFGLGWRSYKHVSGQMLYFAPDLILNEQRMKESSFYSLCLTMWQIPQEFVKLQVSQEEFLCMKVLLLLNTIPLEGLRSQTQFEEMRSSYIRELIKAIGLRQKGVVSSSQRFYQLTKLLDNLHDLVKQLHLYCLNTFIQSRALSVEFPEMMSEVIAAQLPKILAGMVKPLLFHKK
Method in brief: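 Read-out: blue/green beta-lactamase FRET ratio (cleaved ch2 over uncleaved ch1), fitted relative to DMSO baseline. Cells: PR-UAS-bla HEK293T, GAL4-UAS reporter, stimulated with 1 nM R5020 final; 16 hr compound exposure, 37C.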

[8] = read-out: Vascular cell adhesion molecule 1 (VCAM1), VCAM1 (gene 7412); assay: BSK_MyoF_VCAM1: BioMAP Diversity Plus: MyoF Assay for Vascular cell adhesion molecule 1 (VCAM1) Biomarker Activity (AID 2284231); settings: primary human lung fibroblasts
Method in brief: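 ELISA readout of VCAM-1 on human lung fibroblast cultures 24 hours after dosing, analyzed for signal gain relative to DMSO. Overt cytotoxicity was checked by sulforhodamine B total-protein staining in parallel cultures.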

[9] = read-out: Vascular cell adhesion molecule 1 (VCAM1), VCAM1 (gene 7412); assay: BSK_LPS_VCAM1: BioMAP Diversity Plus: LPS Assay for Vascular cell adhesion molecule 1 (VCAM1) Biomarker Activity (AID 2283086); settings: actives raise or lower the signal; primary human HUVEC with PBMC
Method in brief: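 ELISA read-out of VCAM-1 at 24 h post-dosing in an LPS-driven HUVEC/PBMC primary human co-culture; gain or loss of signal fitted bidirectionally against DMSO baseline. Cytotoxicity tracked in parallel cultures by SRB total-protein staining.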

[10] = read-out: Interleukin-1 alpha (IL1a), IL1A (gene 3552); assay: BSK_LPS_IL1a: BioMAP Diversity Plus: LPS Assay for Interleukin-1 alpha (IL1a) Biomarker Activity (AID 2283080); settings: actives raise or lower the signal; primary human HUVEC with PBMC
Method in brief: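 Readout is IL-1a level by ELISA, 24 h post-dose, fitted as gain or loss relative to DMSO. System: LPS-activated human primary co-culture of vascular endothelium and peripheral blood mononuclear cells, with parallel SRB total-protein cytotoxicity.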

[11] = read-out: UDP glucuronosyltransferase (UGT1A6), UGT1A6 (gene 54578); assay: LTEA_HepaRG_UGT1A6: Life Technologies and Expression Analysis (LTEA) Assay for UDP glucuronosyltransferase (UGT1A6) using HepaRG (AID 2283539); settings: actives raise or lower the signal; mRNA level, 48 h
Method in brief: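 Expression was quantified by TaqMan qRT-PCR on Fluidigm arrays with ACTB/GAPDH/POLR2A normalization and bidirectional fitting against 0.5% DMSO. HepaRG cells (~100,000/well) were treated in duplicate for 48 h at eight half-log concentrations up to 100 uM in serum-free induction medium.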

[12] = read-out: urokinase plasminogen activator (uPA), PLAU (gene 5328); assay: BSK_KF3CT_uPA: BioMAP Diversity Plus: KF3CT Assay for urokinase plasminogen activator (uPA) Biomarker Activity (AID 2283075); settings: actives raise or lower the signal; primary human keratinocytes with fibroblasts
Method in brief: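 ELISA read-out of uPA 24 h after dosing human skin keratinocytes co-cultured with foreskin fibroblasts. Signal change fitted both ways relative to DMSO; sulforhodamine B on parallel cultures marks overt cytotoxicity.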

[13] = molecular target: Estrogen receptor (Homo sapiens) (UniProt P03372); assay: OT_ER_ERaERa_1440: Odyssey Thera (OT) 24-hour HEK293T Protein-Complementation Assay for Estrogen Receptor-alpha/-alpha Homodimer (AID 2283349; active means hit-call score of the fitted dose curve at least 0.9, where 1 is the maximum;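 further: hits raise fluorescence above DMSO for agonists and antagonists alike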)
Chain of UniProt P03372 (P03372 whole entry, looked up, the tested form may be a part): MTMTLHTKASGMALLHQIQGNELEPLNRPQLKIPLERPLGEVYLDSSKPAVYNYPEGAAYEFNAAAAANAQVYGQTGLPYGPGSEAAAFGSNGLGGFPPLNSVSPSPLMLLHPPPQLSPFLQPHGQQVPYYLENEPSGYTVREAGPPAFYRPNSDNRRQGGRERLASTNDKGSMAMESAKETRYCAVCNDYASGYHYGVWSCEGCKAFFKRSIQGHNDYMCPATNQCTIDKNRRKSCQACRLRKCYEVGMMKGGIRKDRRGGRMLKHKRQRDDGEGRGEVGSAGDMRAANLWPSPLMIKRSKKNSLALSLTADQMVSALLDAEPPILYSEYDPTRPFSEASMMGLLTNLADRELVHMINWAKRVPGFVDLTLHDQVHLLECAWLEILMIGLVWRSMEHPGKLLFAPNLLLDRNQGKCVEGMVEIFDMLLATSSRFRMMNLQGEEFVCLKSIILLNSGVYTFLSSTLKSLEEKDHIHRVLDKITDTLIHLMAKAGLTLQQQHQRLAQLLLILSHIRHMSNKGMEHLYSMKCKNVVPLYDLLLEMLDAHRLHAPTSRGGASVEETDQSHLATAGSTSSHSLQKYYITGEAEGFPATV
Method in brief: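 HEK293T, stable ERα LBD (aa 310-547) homodimer PCA; 24 h compound exposure; mean fluorescence intensity (nuclear for agonists, nuclear plus cytoplasmic for antagonists) vs vehicle; positive fitting direction, DMSO baseline.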

[14] = molecular target: human CYP2C9, CYP2C9 (gene 1559) (UniProt P11712); assay: NVS_ADME_hCYP2C9: NovaScreen (NVS) CYP450-related Enzyme Activity (ADME) Assay for human CYP2C9 (AID 2283108; active means hit-call score of the fitted dose curve at least 0.9, where 1 is the maximum)
Method in brief: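 Fluorescence readout of CYP2C9 activity (SF9-expressed human enzyme) at 0.75 h. The primary screen used 10 uM in duplicate, with concentration-response follow-up for actives; acetonitrile was the negative control.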

[15] = read-out: E-selectin (Homo sapiens) (UniProt P16581); assay: BSK_SAg_Eselectin: BioMAP Diversity Plus: SAg Assay for Eselectin Biomarker Activity (AID 2283091); settings: actives raise or lower the signal; primary human HUVEC with PBMC
Method in brief: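 Cell-surface E-selectin is read by ELISA at 24 h in the SAg co-culture of HUVEC and PBMC. Curves are fitted in both directions relative to DMSO. Parallel SRB total-protein staining tracks overt toxicity.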

[16] = BSK_SAg_Proliferation: Cell Proliferation Assessment in the BioMAP Diversity Plus: SAg Assay (AID 2283095); settings: primary human HUVEC with PBMC;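 further: relative cell number as total protein by SRB absorbance in sub-confluent culture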
Method in brief: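 HUVEC/PBMC co-culture, 96-well. TCA-fixed (10%), 0.1% SRB stain, A560 at 96 h. Protein content used as viability readout; bidirectional fitting vs DMSO control.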

[17] = read-out: Forkhead box O3 (FOXO3), FOXO3 (gene 2309); assay: LTEA_HepaRG_FOXO3: Life Technologies and Expression Analysis (LTEA) Assay for Forkhead box O3 (FOXO3) using HepaRG (AID 2283459); settings: actives raise or lower the signal; mRNA level, 48 h
Method in brief: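 FOXO3 transcript measured by qRT-PCR (normalized to ACTB, GAPDH, POLR2A) after 48 h exposure of HepaRG cells in serum-free induction medium. Duplicates, eight half-log concentrations up to 100 uM, 0.5% DMSO; gain or loss fitted against DMSO.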

[18] = read-out: Cytochrome P450 4A22 (Homo sapiens) (UniProt Q5TCH4); assay: LTEA_HepaRG_CYP4A22: Life Technologies and Expression Analysis (LTEA) Assay for Cytochrome P450 4A22 (CYP4A22) using HepaRG (AID 2283495); settings: actives raise or lower the signal; mRNA level, 48 h
Method in brief: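 Gene expression measured by qRT-PCR against three housekeeping genes (ACTB, GAPDH, POLR2A), with gain or loss fitted relative to 0.5% DMSO vehicle. HepaRG cultures received 48 h chemical treatment, top concentration 100 uM, half-log steps, duplicate wells.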

[19] = read-out: Hypoxia-inducible factor 1-alpha (Homo sapiens) (UniProt Q16665); assay: LTEA_HepaRG_HIF1A: Life Technologies and Expression Analysis (LTEA) Assay for Hypoxia-inducible factor 1 (HIF1A) Trancription factor using HepaRG (AID 2283503); settings: actives raise or lower the signal; mRNA level, 48 h;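 further: HIF1A transcript by TaqMan qRT-PCR normalized to ACTB GAPDH and POLR2A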
Chain of UniProt Q16665 (Q16665 whole entry, looked up): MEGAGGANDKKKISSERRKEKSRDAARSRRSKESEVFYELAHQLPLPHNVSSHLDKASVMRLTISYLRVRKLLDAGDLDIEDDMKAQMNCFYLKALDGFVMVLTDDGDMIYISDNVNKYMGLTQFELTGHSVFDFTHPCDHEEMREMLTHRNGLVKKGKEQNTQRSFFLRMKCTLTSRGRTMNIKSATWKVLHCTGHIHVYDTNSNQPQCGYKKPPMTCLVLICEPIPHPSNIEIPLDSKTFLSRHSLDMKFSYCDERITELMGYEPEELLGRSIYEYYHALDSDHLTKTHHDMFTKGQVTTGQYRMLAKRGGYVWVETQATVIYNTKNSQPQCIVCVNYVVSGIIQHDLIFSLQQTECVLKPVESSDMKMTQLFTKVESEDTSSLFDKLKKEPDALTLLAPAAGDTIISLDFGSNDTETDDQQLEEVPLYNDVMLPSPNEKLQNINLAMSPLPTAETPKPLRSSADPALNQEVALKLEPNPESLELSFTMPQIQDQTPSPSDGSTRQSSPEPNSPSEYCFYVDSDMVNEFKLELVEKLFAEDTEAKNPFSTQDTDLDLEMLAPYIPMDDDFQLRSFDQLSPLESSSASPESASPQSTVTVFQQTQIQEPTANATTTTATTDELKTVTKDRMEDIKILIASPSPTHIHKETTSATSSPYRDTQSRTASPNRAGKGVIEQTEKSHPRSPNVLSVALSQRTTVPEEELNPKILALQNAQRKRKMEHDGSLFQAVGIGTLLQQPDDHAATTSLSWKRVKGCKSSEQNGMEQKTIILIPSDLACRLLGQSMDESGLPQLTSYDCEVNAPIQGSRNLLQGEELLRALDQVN
Method in brief: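 Gain- or loss-of-signal HIF1A mRNA changes are fitted against a DMSO baseline. HepaRG cultures receive eight concentrations, highest 100 uM, for 48 h in serum-free induction medium with 0.5% DMSO.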

[20] = read-out: Keratin 19 (KRT19), KRT19 (gene 3880); assay: LTEA_HepaRG_KRT19: Life Technologies and Expression Analysis (LTEA) Assay for Keratin 19 (KRT19) using HepaRG (AID 2283512); settings: actives raise or lower the signal; mRNA level, 48 h
Method in brief: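 KRT19 transcript measured by TaqMan qRT-PCR, referenced to three housekeeping genes, after HepaRG cells received test chemicals for 48 h. Eight half-log concentrations, top 100 uM, 0.5% DMSO vehicle; increases and decreases both fitted.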

[21] = read-out: Matrix Metallopeptidase 1 (MMP1), MMP1 (gene 4312); assay: BSK_MyoF_MMP1: BioMAP Diversity Plus: MyoF Assay for Matrix Metallopeptidase 1 (MMP1) Biomarker Activity (AID 2284268); settings: primary human lung fibroblasts
Method in brief: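 Human lung fibroblasts (MyoF system) exposed to chemical for 24 h in 96-well format; MMP1 biomarker quantified by ELISA, with activity fitted in the positive direction relative to DMSO baseline.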

[22] = read-out: Monocyte Chemoattractant Protein-1 (MCP1), CCL2 (gene 6347); assay: BSK_SAg_MCP1: BioMAP Diversity Plus: SAg Assay for Monocyte Chemoattractant Protein-1 (MCP1) Biomarker Activity (AID 2283090); settings: actives raise or lower the signal; primary human HUVEC with PBMC
Method in brief: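 Values derive from bidirectional fitting of ELISA-measured MCP1 against DMSO controls. Readings were taken 24 h after dosing human vascular endothelial cells co-cultured with peripheral blood mononuclear cells under superantigen stimulation.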

[23] = molecular target: Glucocorticoid receptor (Homo sapiens) (UniProt P04150); assay: NVS_NR_hGR: NovaScreen (NVS) Nuclear Receptor Binding Assay for human Glucocorticoid Receptor (GR) (AID 2283363; active means hit-call score of the fitted dose curve at least 0.9, where 1 is the maximum)
Chain of UniProt P04150 (P04150 whole entry, looked up): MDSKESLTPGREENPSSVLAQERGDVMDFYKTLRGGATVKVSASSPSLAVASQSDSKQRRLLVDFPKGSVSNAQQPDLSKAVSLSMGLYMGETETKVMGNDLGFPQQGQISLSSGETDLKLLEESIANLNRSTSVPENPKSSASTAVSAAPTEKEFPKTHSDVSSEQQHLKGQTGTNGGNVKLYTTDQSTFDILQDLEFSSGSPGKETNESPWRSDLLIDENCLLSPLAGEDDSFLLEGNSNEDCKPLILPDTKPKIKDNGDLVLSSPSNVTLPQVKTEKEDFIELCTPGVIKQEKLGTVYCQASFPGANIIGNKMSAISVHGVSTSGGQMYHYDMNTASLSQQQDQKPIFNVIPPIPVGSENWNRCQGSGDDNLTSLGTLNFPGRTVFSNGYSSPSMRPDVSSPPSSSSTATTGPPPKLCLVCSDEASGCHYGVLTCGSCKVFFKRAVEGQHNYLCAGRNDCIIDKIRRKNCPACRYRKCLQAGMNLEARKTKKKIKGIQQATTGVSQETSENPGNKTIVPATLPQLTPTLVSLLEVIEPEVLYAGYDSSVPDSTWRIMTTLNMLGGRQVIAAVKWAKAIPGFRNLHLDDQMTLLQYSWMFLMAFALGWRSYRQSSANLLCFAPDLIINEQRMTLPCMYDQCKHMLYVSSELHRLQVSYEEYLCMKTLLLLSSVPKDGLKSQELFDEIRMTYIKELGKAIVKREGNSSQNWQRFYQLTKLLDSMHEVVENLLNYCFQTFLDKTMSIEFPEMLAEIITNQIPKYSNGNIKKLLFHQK
Method in brief: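 Compounds first tested in duplicate at 25 uM, actives followed up in concentration series. Binding to extracted GR protein measured as competitive radioligand displacement, filter scintillation read 16 h post-dosing, normalised to DMSO.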

[24] = molecular target: Cellular tumor antigen p53 (Homo sapiens) (UniProt P04637); assay: TOX21_p53_BLA_p4_ratio: Tox21 HCT-116 p53 Agonism Beta-lactamase Assay, Ratio, Phase 4 (AID 2283601; active means hit-call score of the fitted dose curve at least 0.9, where 1 is the maximum)
Method in brief: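 Signal is the blue/green (460nm/530nm) ratio of cleaved versus uncleaved CCF4-AM substrate, read after 2 h substrate loading. Cells were HCT116 carrying the p53-responsive beta-lactamase reporter, dosed 16 h at 37C, 5% CO2; CellTiter-Glo measured in parallel.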

[25] = molecular target: rat Adenylate Cyclase, Forskolin Stimulated, Adcy5 (gene 64532) (UniProt Q04400); assay: NVS_ENZ_rACFSKBinding: NovaScreen (NVS) Enzymatic Assay for rat Adenylate Cyclase, Forskolin Stimulated (AID 2283232; active means hit-call score of the fitted dose curve at least 0.9, where 1 is the maximum)
Chain of UniProt Q04400 (Q04400 whole entry, looked up): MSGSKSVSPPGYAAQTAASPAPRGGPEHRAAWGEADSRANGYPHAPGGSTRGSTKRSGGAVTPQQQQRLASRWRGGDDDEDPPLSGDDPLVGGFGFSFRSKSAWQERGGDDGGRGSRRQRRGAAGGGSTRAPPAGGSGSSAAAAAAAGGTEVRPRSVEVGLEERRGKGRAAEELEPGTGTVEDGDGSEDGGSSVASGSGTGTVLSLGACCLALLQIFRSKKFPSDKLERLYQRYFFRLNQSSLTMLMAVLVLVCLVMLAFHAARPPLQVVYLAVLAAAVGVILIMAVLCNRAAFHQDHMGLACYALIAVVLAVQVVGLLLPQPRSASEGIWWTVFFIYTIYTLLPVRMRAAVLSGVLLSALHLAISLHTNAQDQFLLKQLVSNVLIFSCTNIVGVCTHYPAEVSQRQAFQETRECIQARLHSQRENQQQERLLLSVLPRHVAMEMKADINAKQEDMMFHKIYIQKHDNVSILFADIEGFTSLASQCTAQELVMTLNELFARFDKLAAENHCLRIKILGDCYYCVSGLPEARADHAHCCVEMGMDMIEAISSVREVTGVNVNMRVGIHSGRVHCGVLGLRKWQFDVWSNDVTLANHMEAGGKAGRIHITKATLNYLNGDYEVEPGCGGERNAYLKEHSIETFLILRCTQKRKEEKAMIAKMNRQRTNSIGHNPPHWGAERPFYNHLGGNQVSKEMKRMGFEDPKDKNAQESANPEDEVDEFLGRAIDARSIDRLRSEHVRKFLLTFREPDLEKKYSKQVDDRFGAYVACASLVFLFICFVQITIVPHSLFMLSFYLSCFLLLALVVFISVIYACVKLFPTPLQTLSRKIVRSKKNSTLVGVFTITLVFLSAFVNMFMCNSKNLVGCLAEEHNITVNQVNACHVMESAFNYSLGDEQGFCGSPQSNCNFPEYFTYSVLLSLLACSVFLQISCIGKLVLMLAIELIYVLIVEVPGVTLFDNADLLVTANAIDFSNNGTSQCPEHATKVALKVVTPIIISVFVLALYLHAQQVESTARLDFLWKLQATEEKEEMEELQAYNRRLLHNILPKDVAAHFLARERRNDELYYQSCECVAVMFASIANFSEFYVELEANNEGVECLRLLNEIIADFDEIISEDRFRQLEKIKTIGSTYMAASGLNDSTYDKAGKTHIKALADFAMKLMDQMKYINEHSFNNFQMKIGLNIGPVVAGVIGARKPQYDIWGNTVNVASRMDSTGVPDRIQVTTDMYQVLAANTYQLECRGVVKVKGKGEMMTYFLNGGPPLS
Method in brief: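 Chemicals were first tested at 25 uM in duplicate, then hits run as concentration series with top concentration 50 uM. Enzyme source was rat forebrain membranes; radiometric filter read-out after 1 h, referenced to DMSO.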

[26] = CCTE_Simmons_MITO_max_resp_rate: CCTE's HepG2 Seahorse XF Respirometric Screening Assay at Maximal Respiratory State [uncoupled], Simmons Lab (AID 2284002); settings: actives raise or lower the signal
Method in brief: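 Maximal (FCCP-uncoupled) respiration rate in HepG2, from Seahorse kinetic OCR over 72 min at 6 min cycles. Compounds at 125 nM–100 uM final, 7 points, three biological replicates; both directions fit relative to DMSO.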

CC(C)(c1cc(Cl)c(O)c(Cl)c1)c1cc(Cl)c(O)c(Cl)c1
outcome [1]: inactive | AC50 [2]: active: 30.4 µM | AC50 [3]: active: 24.4 µM | AC50 [4]: active: 35.6 µM | AC50 [5]: active: 30.1 µM | outcome [6]: inactive | AC50 [7]: active: 11.2 µM | AC50 [8]: active: 10.5 µM

c1cc2ccc3cccc4ccc(c1)c2c34
AC50 [3]: active: 20.8 µM

CCCOc1nn(C(=O)NS(=O)(=O)c2ccccc2C(=O)OC)c(=O)n1C
outcome [9]: inactive

CCOc1ccc(C(C)(C)COCc2cccc(Oc3ccccc3)c2)cc1
outcome [10]: inactive | outcome [11]: inactive

CCCCCCCc1ccc(O)cc1
AC50 [12]: active: 34.4 µM | AC50 [13]: active: 26.6 µM

COP(=S)(OC)Oc1ccc([N+](=O)[O-])c(C)c1
AC50 [14]: active: 1.96 µM

COCC(C)N(C(=O)CCl)c1c(C)csc1C (centres undefined)
outcome [15]: inactive | outcome [16]: inactive | outcome [17]: inactive | outcome [18]: inactive | outcome [19]: inactive | outcome [20]: inactive | AC50 [21]: active: 14.8 µM

CCC(C)(C)c1ccc(O)c(C(C)(C)CC)c1
AC50 [22]: active: 13.5 µM | outcome [23]: inactive | AC50 [24]: active: 39.6 µM

CCCSP(=O)(OCC)Oc1ccc(Br)cc1Cl (centres undefined)
AC50 [9]: active: 27.8 µM | AC50 [22]: active: 29.1 µM | outcome [25]: inactive | outcome [26]: inactive
